In a compilation of properties of binary mixtures (doi:10.1021/je1012444):
The densities may have been worked out from excess volumes.

Assay: xn = mol fraction of the nth substance listed
Settings: 100 kPa

SMILES	mass density (313.2 K, x2 = 0.1) [kg/m3]	mass density (313.2 K, x2 = 0.2) [kg/m3]	mass density (313.2 K, x2 = 0.4035) [kg/m3]	mass density (313.2 K, x2 = 0.4959) [kg/m3]	mass density (333.2 K, x2 = 0.1) [kg/m3]	mass density (333.2 K, x2 = 0.2) [kg/m3]	mass density (333.2 K, x2 = 0.2892) [kg/m3]	mass density (333.2 K, x2 = 0.4035) [kg/m3]	mass density (313.2 K, x2 = 0.0999) [kg/m3]	mass density (313.2 K, x2 = 0.2002) [kg/m3]	mass density (313.2 K, x2 = 0.3003) [kg/m3]	mass density (313.2 K, x2 = 0.3953) [kg/m3]	mass density (313.2 K, x2 = 0.5001) [kg/m3]	mass density (313.2 K, x2 = 0.6779) [kg/m3]	mass density (333.2 K, x2 = 0.0999) [kg/m3]	mass density (333.2 K, x2 = 0.2002) [kg/m3]	mass density (333.2 K, x2 = 0.3003) [kg/m3]	mass density (333.2 K, x2 = 0.3953) [kg/m3]	mass density (333.2 K, x2 = 0.5001) [kg/m3]
CCCC[n+]1ccn(C)c1.F[P-](F)(F)(F)(F)F + CCO	1340	1315	1262	1235	1320	1298	1284	1246											
CCCC[n+]1ccn(C)c1.F[P-](F)(F)(F)(F)F + c1ccccc1									1335	1314	1289	1260	1226	1149	1317	1296	1272	1242	1210
